# Laboratory results as given in the BET-seq Pho4 binding data (Le et al. 2018).
# Some of the results follow. Values were computed here from the reads of four pooled replicates and scatter widely.
# Biological target: T1, Pho4 (S. cerevisiae) (UniProt P07270)
# T1 sequence: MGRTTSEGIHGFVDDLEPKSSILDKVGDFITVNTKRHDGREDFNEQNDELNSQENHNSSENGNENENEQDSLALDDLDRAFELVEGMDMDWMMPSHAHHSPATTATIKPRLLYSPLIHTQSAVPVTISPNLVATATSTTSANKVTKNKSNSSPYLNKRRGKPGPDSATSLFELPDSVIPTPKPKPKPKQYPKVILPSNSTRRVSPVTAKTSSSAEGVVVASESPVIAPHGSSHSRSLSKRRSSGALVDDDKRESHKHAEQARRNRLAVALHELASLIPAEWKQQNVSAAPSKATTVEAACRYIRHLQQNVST
# Experiment: relative binding free energy (BET-seq); higher = weaker binding
# Settings: reference: library average
row,Sequence,relative binding free energy [kcal/mol]
1,TTTGGCACGTGCGTAT,-0.13
2,AATCGCACGTGGTATG,-0.1
3,GATCGCACGTGTGGGC,-0.04
4,GTGCTCACGTGCGCGG,0.04
5,AGGAGCACGTGGTTCT,-0.14
6,TGGTTCACGTGTGCGG,0.28
7,TTTTGCACGTGTTTGT,0.02
8,AATTTCACGTGAGGGG,0.4
9,TGCAGCACGTGGGGGG,-0.17
10,TGATGCACGTGGGAGA,-0.04
11,AATGACACGTGTCTGT,-0.03
12,TAGAACACGTGGTTAG,-0.03
13,ATAAGCACGTGATTGG,0
14,GTAGGCACGTGGATTC,0.05
15,GGTGTCACGTGTAGGT,0.11
16,GCTGACACGTGTGGTT,0.04
17,TTGAGCACGTGCGGGA,-0.14
18,TGAGGCACGTGCGTCG,-0.1
19,TATTGCACGTGTGGAT,0.14
20,TGGAGCACGTGGTCGT,-0.22
21,TGGTTCACGTGTTCCT,0.34
22,TACTTCACGTGGATTG,0.23
23,TAGAGCACGTGGGTGA,-0.25
24,GTCTTCACGTGCTGGG,0.34
25,TAGATCACGTGTTAAT,0.24
26,TGTTTCACGTGGTTAC,0.22

row,Sequence,relative binding free energy [kcal/mol]
1,CGAAGCACGTGGGTAG,-0.21
2,TGCTGCACGTGGCAGG,-0.08
3,CGGATCACGTGAGGTG,0.29
4,AGAAGCACGTGAATGG,0.21
5,ATTGTCACGTGCGTAA,-0.09
6,ACAGACACGTGGTGGT,-0.07
7,TATTACACGTGAGTAA,0.29
8,TTTAACACGTGAGTAT,0.28
9,TAGGGCACGTGATCTG,-0.05
10,TGGTACACGTGAAATG,0.22
11,TGTCTCACGTGATGGA,0.31
12,ATCTGCACGTGTGTGA,0.04
13,GTGTTCACGTGCTGTG,0.3
14,AAAAGCACGTGTGGAG,0.19
15,GGGGTCACGTGCCAGG,0.03
16,CTCGGCACGTGGGTCG,-0.13
17,AGGTGCACGTGGTCGA,-0.25
18,CGATGCACGTGGGTGG,-0.28
19,TGGGTCACGTGTTACT,0.13
20,GAGGGCACGTGGAAAG,0.1
21,GATGTCACGTGTAGCT,0.12
22,ATGTGCACGTGCTTGG,-0.01
23,GTTGACACGTGGCAGT,-0.05
24,CATTGCACGTGATTTG,0.15
25,AAACACACGTGGTGGT,0.1
26,GGTTTCACGTGGTTAA,0.23

row,Sequence,relative binding free energy [kcal/mol]
1,TATTTCACGTGAGGGT,0.33
2,TGTTTCACGTGGTCGG,0.24
3,GGTGTCACGTGTGAAG,0.06
4,GCGCTCACGTGGTTGT,0.17
5,TCTATCACGTGGGTAT,0.05
6,CGGTTCACGTGTATTG,0.13
7,TGCCGCACGTGGGTTA,-0.09
8,TTGCTCACGTGTGTTG,0.06
9,TTTTGCACGTGCATAG,0
10,TGAGTCACGTGTGGTC,0.09
11,TTATTCACGTGTATCA,0.25
12,GGGTTCACGTGGGCCT,0.18
13,TACTGCACGTGGTCTT,-0.01
14,GGGTGCACGTGTCTAG,0.06
15,TATGGCACGTGAGTAG,0.09
16,TCGTGCACGTGCTAGG,-0.11
17,GGGCTCACGTGGAAGG,0.33
18,GTTGACACGTGAGTTG,0.34
19,TATCTCACGTGCGTTG,0.15
20,AGGGTCACGTGTAGTG,0.21
21,TATTACACGTGGTGGT,0.04
22,TACGCCACGTGGGAGG,-0.13
23,ATATGCACGTGGGTTT,-0.11
24,ACGTACACGTGGTATG,-0.09
25,AGATTCACGTGGTGAG,0.04
26,GTATCCACGTGGGGTG,-0.17

row,Sequence,relative binding free energy [kcal/mol]
1,TGTGTCACGTGTTCCA,0.15
2,TCTTCCACGTGGGGGT,-0.21
3,CTGTCCACGTGGTGTG,-0.07
4,TTTAGCACGTGAAAAT,0.18
5,GGAGTCACGTGGGTTA,0.04
6,TTTCTCACGTGGTTGA,0.2
7,GTGAGCACGTGGTATC,-0.06
8,GGTGGCACGTGGGGTC,-0.15
9,TTGAGCACGTGAGGGT,0.07
10,GGTATCACGTGGAGTT,0.2
11,AAATGCACGTGTTAGG,0.05
12,AATAGCACGTGCGGGG,-0.05
13,GGCAGCACGTGTAGGC,0.03
14,AGTCTCACGTGATTTA,0.33
15,TGCATCACGTGAAGTG,0.35
16,AGGGTCACGTGCAATT,0.1
17,GGCGGCACGTGTCTTT,0.05
18,TGTGTCACGTGGTCCT,0.01
19,GGCAACACGTGGTGGG,-0.08
20,GCATTCACGTGGGTCG,0.32
21,ATACGCACGTGGGTCG,-0.16
22,GTAGGCACGTGATGCA,0.02
23,ATGTTCACGTGATTAA,0.17
24,GTTTTCACGTGTCAGA,0.22
25,TGTGACACGTGCATTT,0.06
26,GATTGCACGTGCTTGT,0.02

row,Sequence,relative binding free energy [kcal/mol]
1,TATAACACGTGGGGTG,-0.28
2,TTTTGCACGTGGCACG,-0.08
3,TCGGGCACGTGTGCAT,-0.06
4,GGAAGCACGTGCGGTT,-0.12
5,CTTGGCACGTGGAGTA,-0.22
6,ATTGACACGTGTTGGT,0.07
7,GCGTTCACGTGTGTAT,0.18
8,GCTGGCACGTGTAATG,0.11
9,TGAGTCACGTGTCGAT,0.21
10,AGGAGCACGTGTTATA,0
11,TTGTGCACGTGTGCGA,0.03
12,TTTATCACGTGGAACG,0.31
13,CTGTACACGTGATTTT,0.09
14,TAAAGCACGTGGGCGG,-0.17
15,TTAGGCACGTGTTTGA,-0.23
16,TTCATCACGTGATGGA,0.32
17,TTGAGCACGTGTGAGG,0.04
18,GTATACACGTGGGTGC,-0.09
19,TTTGACACGTGCTTTG,0.05
20,GGTACCACGTGGTTTA,-0.09
21,GGGGACACGTGATAGA,0.2
22,GTTTTCACGTGAAAAG,0.37
23,GCTGTCACGTGTAGGA,0.09
24,AGGTGCACGTGTGGGC,0.03
25,ATCGGCACGTGATATG,0.02
26,TTGGTCACGTGCAGCG,0

row,Sequence,relative binding free energy [kcal/mol]
1,CTTGGCACGTGACGTT,-0.06
2,ACTTTCACGTGATTTG,0.27
3,GACGGCACGTGATTGT,0.18
4,GTTTACACGTGCGGCT,0.12
5,GTGTTCACGTGGTCAA,0.38
6,TAAGTCACGTGTTAAG,0.23
7,ATGGTCACGTGAGTGA,0.28
8,TTGGTCACGTGAAGAG,0.17
9,GTTCACACGTGTTGCG,0.11
10,ATTTACACGTGTTCTG,0.15
11,TTTGGCACGTGGTTAA,-0.11
12,CTATTCACGTGTTGAT,0.11
13,GAGGTCACGTGTTCTT,0.19
14,CGTTTCACGTGATGAT,0.34
15,TAATGCACGTGATATA,0.1
16,GTGGCCACGTGTGTCT,-0.01
17,TATGTCACGTGATATT,0.27
18,GGTGGCACGTGGAAGG,0.09
19,TTCTTCACGTGGAGAG,0.29
20,TTTTTCACGTGACGTC,0.33
21,TTTAGCACGTGTGCCG,-0.07
22,ATAAGCACGTGCGGCG,-0.03
23,GGAGTCACGTGTCGTA,0.23
24,TGGTTCACGTGAGGTA,0.51
25,CCGGTCACGTGGTGAG,0.15
26,ATTCGCACGTGGTTAA,-0.13

row,Sequence,relative binding free energy [kcal/mol]
1,TATGGCACGTGAGCGG,-0.02
2,TGGTACACGTGTAAGG,0.17
3,AAAGACACGTGTGGGG,0.07
4,GGGGTCACGTGCGATT,0.13
5,TATATCACGTGGTGCA,0
6,AAGGGCACGTGGTCTT,-0.29
7,AATTCCACGTGGGTTA,0.05
8,TAAGACACGTGTGTGT,-0.2
9,CGTGTCACGTGAGGAT,0.3
10,GCTTCCACGTGGGTGG,-0.01
11,GCAGTCACGTGTTGTT,0.11
12,AGTTTCACGTGTAGGG,0.3
13,TCTTGCACGTGGACTG,0.07
14,TTTGCCACGTGTTTGT,-0.01
15,GAAAGCACGTGGGTTA,-0.17
16,TGATGCACGTGTTTAG,-0.05
17,AATGACACGTGGGTGC,-0.17
18,GGTTGCACGTGGGCCG,-0.01
19,TAAAACACGTGTGGGC,0.19
20,GATATCACGTGACTGG,0.38
21,GTCTCCACGTGTGGTA,0.23
22,ATTGACACGTGTTAAT,-0.15
23,GGGAGCACGTGGTCGC,-0.14
24,GAGCGCACGTGTAGAG,0.1
25,AGTCACACGTGATTGT,0.18
26,GTTGGCACGTGGTTCT,-0.07

row,Sequence,relative binding free energy [kcal/mol]
1,AATGGCACGTGCAGGT,-0.04
2,TTTGTCACGTGGATGG,0.16
3,TTCATCACGTGGGGGC,-0.03
4,GGTCGCACGTGATATT,0.13
5,CGCGTCACGTGGGAGA,0.12
6,TTGTGCACGTGTTAGG,-0.01
7,GTTATCACGTGAAGTA,0.39
8,AATGGCACGTGGAATA,-0.04
9,GTTATCACGTGTCAGG,0.25
10,CGTAGCACGTGGGGAA,-0.27
11,GTAGGCACGTGCGAGT,-0.11
12,GATCGCACGTGTGTTT,0.08
13,GGGAGCACGTGATCGT,0.1
14,GGTATCACGTGCTTTA,0.07
15,AGGATCACGTGTGAGG,0.24
16,GGTGGCACGTGCTCTG,-0.1
17,TGTCACACGTGTTTGG,0.06
18,AAGGTCACGTGATTGT,0.22
19,TTTTGCACGTGAAAAG,0.1
20,AATAACACGTGATGTT,0.15
21,AATGGCACGTGGTAGT,-0.15
22,GATCTCACGTGGTGGT,0.13
23,GTAGACACGTGCAGTT,0.12
24,GGCTGCACGTGGGACT,0.09
25,TGGTTCACGTGTATGC,0.25
26,TTCTGCACGTGTACGG,0.04

row,Sequence,relative binding free energy [kcal/mol]
1,TCAGTCACGTGGGGGA,-0.02
2,TTAATCACGTGTGTCG,0.11
3,TTTTCCACGTGAGGGG,0.34
4,AGTTTCACGTGTTGCG,0.38
5,TTTTACACGTGAAATG,0.22
6,GTTGGCACGTGGCCTG,-0.25
7,TATTGCACGTGAGGTT,0.17
8,TTCTGCACGTGAGATG,0.24
9,TATGGCACGTGAATGG,0.21
10,GATTTCACGTGGGGGT,0.26
11,GTGCACACGTGGTGGG,-0.01
12,TGTCTCACGTGGTTGT,0.2
13,CGGTACACGTGGTAGT,-0.13
14,TTAGGCACGTGAGAGT,0.11
15,TGGGCCACGTGGATAG,-0.12
16,ATGGCCACGTGTGTGA,-0.08
17,GTTGGCACGTGCTGAA,-0.01
18,TTTTGCACGTGCTAGT,-0.12
19,TAGATCACGTGTTTAT,-0.06
20,TTATGCACGTGCGTGC,-0.07
21,GTGATCACGTGTGGGT,0.22
22,TTGAACACGTGATAGG,0.06
